Experimental data: paper PMC5895073, “Cell polarity protein Spa2 coordinates Chs2 incorporation at the division site in budding yeast” (PLoS Genetics, 2018)
These are yes or no findings as the source states them, for the method shown. For part of these data: In cells and extracts the contact can be indirect. Some binding calls cover weakened binding; strength is not graded here. For part of these data: Tags and fused reporters may be left off the sequences shown.

Sequences of proteins named here, by UniProt entry; tags and fusion partners are left off. A change or cut given only in a name is not applied to a line headed by its entry. Residues count along the entry.
UniProt P23201: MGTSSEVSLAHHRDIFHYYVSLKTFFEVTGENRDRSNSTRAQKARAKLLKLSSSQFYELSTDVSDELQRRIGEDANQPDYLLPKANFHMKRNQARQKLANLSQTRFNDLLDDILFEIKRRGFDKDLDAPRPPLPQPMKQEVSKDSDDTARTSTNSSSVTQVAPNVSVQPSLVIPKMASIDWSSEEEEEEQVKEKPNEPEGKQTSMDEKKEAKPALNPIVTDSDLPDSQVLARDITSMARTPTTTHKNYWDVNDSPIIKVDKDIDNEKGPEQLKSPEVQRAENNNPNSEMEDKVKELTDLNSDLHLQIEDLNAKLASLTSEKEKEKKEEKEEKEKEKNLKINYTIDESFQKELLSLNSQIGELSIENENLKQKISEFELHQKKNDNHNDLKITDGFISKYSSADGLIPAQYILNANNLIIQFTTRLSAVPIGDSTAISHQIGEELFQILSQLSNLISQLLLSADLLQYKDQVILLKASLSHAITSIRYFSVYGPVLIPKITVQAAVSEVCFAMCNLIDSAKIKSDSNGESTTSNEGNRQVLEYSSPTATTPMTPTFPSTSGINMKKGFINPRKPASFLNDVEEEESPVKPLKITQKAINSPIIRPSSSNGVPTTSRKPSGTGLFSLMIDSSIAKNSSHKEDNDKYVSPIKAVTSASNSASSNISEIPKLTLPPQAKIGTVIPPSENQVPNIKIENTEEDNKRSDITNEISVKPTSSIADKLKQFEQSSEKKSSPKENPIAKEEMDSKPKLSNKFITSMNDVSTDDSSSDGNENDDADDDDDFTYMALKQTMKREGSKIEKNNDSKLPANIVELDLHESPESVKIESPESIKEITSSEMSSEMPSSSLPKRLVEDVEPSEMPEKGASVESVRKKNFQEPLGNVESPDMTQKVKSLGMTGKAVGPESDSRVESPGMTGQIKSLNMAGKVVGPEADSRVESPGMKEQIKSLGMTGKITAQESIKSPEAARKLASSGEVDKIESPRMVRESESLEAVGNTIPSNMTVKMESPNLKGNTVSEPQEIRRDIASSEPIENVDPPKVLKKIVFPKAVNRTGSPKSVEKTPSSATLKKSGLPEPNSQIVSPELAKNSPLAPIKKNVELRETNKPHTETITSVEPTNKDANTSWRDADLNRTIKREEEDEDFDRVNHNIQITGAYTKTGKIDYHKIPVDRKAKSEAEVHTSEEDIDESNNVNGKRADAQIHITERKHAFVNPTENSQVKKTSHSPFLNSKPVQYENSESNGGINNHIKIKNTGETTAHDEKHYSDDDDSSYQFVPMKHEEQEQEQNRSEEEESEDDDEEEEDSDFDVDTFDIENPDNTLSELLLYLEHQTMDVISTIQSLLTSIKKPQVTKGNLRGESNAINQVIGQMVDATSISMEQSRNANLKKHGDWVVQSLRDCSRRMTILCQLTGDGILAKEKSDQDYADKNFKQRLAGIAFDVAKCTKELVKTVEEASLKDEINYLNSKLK
Spa2-1-145: residues 1-145 of P23201
UniProt P08964: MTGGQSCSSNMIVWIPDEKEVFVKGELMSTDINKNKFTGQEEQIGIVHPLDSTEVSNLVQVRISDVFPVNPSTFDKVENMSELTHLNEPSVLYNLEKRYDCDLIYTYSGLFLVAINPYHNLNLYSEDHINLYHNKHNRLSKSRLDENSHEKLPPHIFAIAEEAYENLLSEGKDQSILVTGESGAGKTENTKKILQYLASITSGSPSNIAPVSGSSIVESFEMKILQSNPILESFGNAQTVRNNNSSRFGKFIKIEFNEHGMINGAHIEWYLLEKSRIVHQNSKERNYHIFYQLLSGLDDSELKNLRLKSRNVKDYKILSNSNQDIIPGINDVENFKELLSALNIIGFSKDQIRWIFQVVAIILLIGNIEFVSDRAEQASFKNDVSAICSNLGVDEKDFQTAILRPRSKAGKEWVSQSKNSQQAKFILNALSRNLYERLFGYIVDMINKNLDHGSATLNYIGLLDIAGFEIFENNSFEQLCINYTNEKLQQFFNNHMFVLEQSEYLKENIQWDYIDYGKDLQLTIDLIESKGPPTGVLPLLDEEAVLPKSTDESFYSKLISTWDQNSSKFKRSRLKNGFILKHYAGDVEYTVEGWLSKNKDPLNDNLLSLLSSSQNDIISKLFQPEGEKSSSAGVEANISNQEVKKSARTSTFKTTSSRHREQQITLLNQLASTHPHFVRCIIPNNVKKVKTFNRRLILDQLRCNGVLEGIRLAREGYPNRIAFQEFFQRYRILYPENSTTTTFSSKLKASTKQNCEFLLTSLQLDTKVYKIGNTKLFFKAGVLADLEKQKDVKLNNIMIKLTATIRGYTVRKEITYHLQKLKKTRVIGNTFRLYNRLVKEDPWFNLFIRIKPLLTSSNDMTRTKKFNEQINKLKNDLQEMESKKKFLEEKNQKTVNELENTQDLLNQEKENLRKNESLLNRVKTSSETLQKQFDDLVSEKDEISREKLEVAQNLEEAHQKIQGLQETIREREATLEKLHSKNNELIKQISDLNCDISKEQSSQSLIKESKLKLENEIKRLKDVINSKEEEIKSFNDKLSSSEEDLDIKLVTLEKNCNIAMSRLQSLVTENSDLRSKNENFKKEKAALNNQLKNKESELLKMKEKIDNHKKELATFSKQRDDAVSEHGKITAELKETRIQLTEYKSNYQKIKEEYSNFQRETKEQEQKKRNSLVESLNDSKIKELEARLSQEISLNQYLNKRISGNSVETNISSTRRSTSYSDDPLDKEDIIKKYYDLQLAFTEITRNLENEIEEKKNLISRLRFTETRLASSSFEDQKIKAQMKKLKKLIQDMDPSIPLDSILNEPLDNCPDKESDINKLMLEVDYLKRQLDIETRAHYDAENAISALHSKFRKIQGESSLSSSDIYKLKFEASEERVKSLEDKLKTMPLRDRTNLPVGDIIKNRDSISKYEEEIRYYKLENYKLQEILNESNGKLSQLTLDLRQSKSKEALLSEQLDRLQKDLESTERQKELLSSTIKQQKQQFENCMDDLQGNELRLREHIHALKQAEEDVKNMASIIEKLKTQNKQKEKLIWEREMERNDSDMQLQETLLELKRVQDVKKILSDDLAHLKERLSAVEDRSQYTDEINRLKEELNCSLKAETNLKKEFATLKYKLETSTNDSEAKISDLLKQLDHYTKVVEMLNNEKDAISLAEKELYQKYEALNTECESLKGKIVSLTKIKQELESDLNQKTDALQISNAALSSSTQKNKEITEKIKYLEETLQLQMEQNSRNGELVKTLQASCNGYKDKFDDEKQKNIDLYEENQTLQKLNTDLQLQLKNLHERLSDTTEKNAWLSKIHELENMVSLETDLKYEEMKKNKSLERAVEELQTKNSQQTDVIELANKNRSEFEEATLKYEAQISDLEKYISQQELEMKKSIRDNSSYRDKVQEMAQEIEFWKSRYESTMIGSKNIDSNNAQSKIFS

Legend:
TAP-Spa2 (S. cerevisiae) [1] = target: TAP-Spa2 (S. cerevisiae) (UniProt P23201); experiment: co-IP; yeast cell extract of cells in cytokinesis (90 min after G1 release, YPD, 24°C; control cells of Fig 4C: 75 min, YPGal, 37°C); TAP-Spa2 on IgG beads; immunoblot
TAP-Spa2 (S. cerevisiae) [2] = target: TAP-Spa2 (S. cerevisiae) (UniProt P23201); experiment: condition: only extracts of cells arrested in G1 phase or going through S phase; co-IP; yeast cell extract of cells arrested in G1 phase or released 30 min (S phase); TAP-Spa2 on IgG beads; immunoblot
[3] = target: Spa2-1-145 (S. cerevisiae) (UniProt P23201); experiment: two-hybrid; vectors pGADT7 and pGBKT7; growth at 30°C on SC medium lacking leucine, tryptophan and histidine (selective), 3-4 days

Myo1-5FLAG (from UniProt P08964 1-1928)
binding (TAP-Spa2 (S. cerevisiae) [1]): binds
binding (TAP-Spa2 (S. cerevisiae) [2]): no binding

B1: full-length Cyk3 (protein, UniProt Q07533 1-885)
chain: MATNLTSLKPPFKVKARYGWSGQTKGDLGFLEGDIMEVTRIAGSWFYGKLLRNKKCSGYFPHNFVILLEERLNSSTENGRQPSKIVESFEKSNKVVIPPVPSRYSDERPRPKKKLSSSMPNSPKKPVDSLTKARKAKSKEMVNEKNIYNTQSSRHHNNSAPNLPLASHSKPQVRNFEESMNNPLPPLPPLPDLDNMRKTDKRAPKKSYSANDLHMARSSREYNYYKDNQKFYDGFIPEKRYSLEEDSISSGLFSNSQYLNDSACSSENSFALMSDFSATSAGSFARHKYAQSFSDSLQRSQNANGCSTKINDSQEFGDSNASSRNGKMGDILRKIIIPKRNTNIYSSSVSSPKSPKAYPKLPDIQNLNLSATPDEARDWIAVKCHLNRARTLTKYDKHPRYMRALEENRDLILHPQDSIYNGLNTNEVKGNTKPGLVDVELAELNIEYIDKMTWKRCIRDGTMTLDSWAQTTFSARYSTVLEKLRGIYIFCTEMFALTDDNGTSDFSAEPQNLEKILYRKHCTPYELTWLFKKLANSLGITCEIVIGFLKTPSAINWEFKYNHCWLRILVNKEWRFIDVILGNVTNPIHEFVNNRKIKKAENSYFLMAPLEMIYTHIPPREFEQHIVPSIDQLSALYLPLVFPSFFKNELKLYKFSTALSFLEDSEIYECSLEIPNDVEVFASVVIPTDNEEASSAYRNMELALTQIKKQKAESGRRIALIKAVLPPNVNKGSLYIHSGVRGTQTSIANIHPLSMMVPLTHKGSNMKYEFVIKIPSESIQKIELYIVEPQSRYLFVGNEYSFEVIQSPSDGIVYSSDEGPNQNRKQPMAIKSPSGRVHELVKSDPHFPYGTWKGSIKIKEPGVWSALVIADSGIGWSVFAEWLCV
binding [3]: binds

B2: Cyk3-1-74 (domain or fragment, UniProt Q07533 1-74)
chain: MATNLTSLKPPFKVKARYGWSGQTKGDLGFLEGDIMEVTRIAGSWFYGKLLRNKKCSGYFPHNFVILLEERLNS
binding [3]: binds

B3: Cyk3-68-885 (domain or fragment, UniProt Q07533 68-885)
chain: LEERLNSSTENGRQPSKIVESFEKSNKVVIPPVPSRYSDERPRPKKKLSSSMPNSPKKPVDSLTKARKAKSKEMVNEKNIYNTQSSRHHNNSAPNLPLASHSKPQVRNFEESMNNPLPPLPPLPDLDNMRKTDKRAPKKSYSANDLHMARSSREYNYYKDNQKFYDGFIPEKRYSLEEDSISSGLFSNSQYLNDSACSSENSFALMSDFSATSAGSFARHKYAQSFSDSLQRSQNANGCSTKINDSQEFGDSNASSRNGKMGDILRKIIIPKRNTNIYSSSVSSPKSPKAYPKLPDIQNLNLSATPDEARDWIAVKCHLNRARTLTKYDKHPRYMRALEENRDLILHPQDSIYNGLNTNEVKGNTKPGLVDVELAELNIEYIDKMTWKRCIRDGTMTLDSWAQTTFSARYSTVLEKLRGIYIFCTEMFALTDDNGTSDFSAEPQNLEKILYRKHCTPYELTWLFKKLANSLGITCEIVIGFLKTPSAINWEFKYNHCWLRILVNKEWRFIDVILGNVTNPIHEFVNNRKIKKAENSYFLMAPLEMIYTHIPPREFEQHIVPSIDQLSALYLPLVFPSFFKNELKLYKFSTALSFLEDSEIYECSLEIPNDVEVFASVVIPTDNEEASSAYRNMELALTQIKKQKAESGRRIALIKAVLPPNVNKGSLYIHSGVRGTQTSIANIHPLSMMVPLTHKGSNMKYEFVIKIPSESIQKIELYIVEPQSRYLFVGNEYSFEVIQSPSDGIVYSSDEGPNQNRKQPMAIKSPSGRVHELVKSDPHFPYGTWKGSIKIKEPGVWSALVIADSGIGWSVFAEWLCV
binding [3]: binds

B4: Cyk3-475-764 (domain or fragment, UniProt Q07533 475-764)
chain: ARYSTVLEKLRGIYIFCTEMFALTDDNGTSDFSAEPQNLEKILYRKHCTPYELTWLFKKLANSLGITCEIVIGFLKTPSAINWEFKYNHCWLRILVNKEWRFIDVILGNVTNPIHEFVNNRKIKKAENSYFLMAPLEMIYTHIPPREFEQHIVPSIDQLSALYLPLVFPSFFKNELKLYKFSTALSFLEDSEIYECSLEIPNDVEVFASVVIPTDNEEASSAYRNMELALTQIKKQKAESGRRIALIKAVLPPNVNKGSLYIHSGVRGTQTSIANIHPLSMMVPLTHKGS
binding [3]: binds

B5: Cyk3-765-885 (domain or fragment, UniProt Q07533 765-885)
chain: NMKYEFVIKIPSESIQKIELYIVEPQSRYLFVGNEYSFEVIQSPSDGIVYSSDEGPNQNRKQPMAIKSPSGRVHELVKSDPHFPYGTWKGSIKIKEPGVWSALVIADSGIGWSVFAEWLCV
binding [3]: binds

B6: SH3 domain of Hof1 (two-hybrid fragment) (domain or fragment, UniProt Q05080 599-667)
chain: PVIEYAKAMYPLIGNEAPGLANFHKGDYLLITEIVNKDWYKGEVYDNDRIDRNHRIGLIPYNFIQLLHQ
binding [3]: binds

B7: Hof1-200-272 (domain or fragment, UniProt Q05080 200-272)
chain: KFWIHEWAQLSCELQEMENARISFLQSKLQQFATSSMETYILEQTKMDMLTNHLNSFTAADEISTFSKENGTG
binding [3]: binds

B8: Chs2-9MYC (protein, UniProt P14180 1-963)
chain: MTRNPFMVEPSNGSPNRRGASNLSKFYANANSNSRWANPSEESLEDSYDQSNVFQGLPASPSRAALRYSPDRRHRTQFYRDSAHNSPVAPNRYAANLQESPKRAGEAVIHLSEGSNLYPRDNADLPVDPYHLSPQQQPSNNLFGSGRLYSQSSKYTMSTTSTTAPSLAEADDEKEKYLTSTTSYDDQSTIFSADTFNETKFELNHPTRQQYVRRANSESKRRMVSDLPPPSKKKALLKLDNPIPKGLLDTLPRRNSPEFTEMRYTACTVEPDDFLREGYTLRFAEMNRECQIAICITMYNEDKYSLARTIHSIMKNVAHLCKREKSHVWGPNGWKKVSVILISDGRAKVNQGSLDYLAALGVYQEDMAKASVNGDPVKAHIFELTTQVSINADLDYVSKDIVPVQLVFCLKEENKKKINSHRWLFNAFCPVLQPTVVTLVDVGTRLNNTAIYRLWKVFDMDSNVAGAAGQIKTMKGKWGLKLFNPLVASQNFEYKISNILDKPLESVFGYISVLPGALSAYRYRALKNHEDGTGPLRSYFLGETQEGRDHDVFTANMYLAEDRILCWELVAKRDAKWVLKYVKEATGETDVPEDVSEFISQRRRWLNGAMFAAIYAQLHFYQIWKTKHSVVRKFFLHVEFLYQFIQMLFSWFSIANFVLTFYYLAGSMNLVIKHGEALFIFFKYLIFCDLASLFIISMGNRPQGAKHLFITSMVILSICATYSLICGFVFAFKSLASGTESHKIFVDIVISLLSTYGLYFFSSLMYLDPWHMFTSSIQYFLTLPAFTCTLQIFAFCNTHDVSWGTKGSTQESKQLSKAIVVQGPDGKQIVETDWPQEVDKKFLEIKSRLKEPEFEESSGNEKQSKNDYYRDIRTRIVMIWMLSNLILIMSIIQVFTPQDTDNGYLIFILWSVAALAAFRVVGSMAFLFMKYLRIIVSYRNKVEGSGSWEVSKLDLPNVFHKKG
binding (TAP-Spa2 (S. cerevisiae) [1]): binds
binding (TAP-Spa2 (S. cerevisiae) [2]): no binding

B9: Iqg1-6HA (protein, UniProt Q12280 1-1495)
chain: MTAYSGSPSKPGNNNSYLNRYVENLGTNVTPPLRPQSSSKINSSLNIASPSHLKTKTSASNSSATILSKKVESSVSKLKPSLPNKLVGKYTVDLSNYSKIELRYYEFLCRVSEVKIWIEAVIEEALPSEIELCVGDSLRNGVFLAKLTQRINPDLTTVIFPAGDKLQFKHTQNINAFFGLVEHVGVPDSFRFELQDLYNKKNIPQVFETLHILISMINKKWPGKTPALTNVSGQISFTKEEIAACKKAWPRIRDFKSLGTNINTAPASPEEPKEKRSGLIKDFNKFERPNIPVEEILITPRKNITDANCSDFSNTPSPYNEAPKMSNLDVVVEKRKFTPIEPSLLGPTPSLEYSPIKNKSLSYYSPTISKYLTYDTEFYTRRSRAREEDLNYYQTFKYSPSHYSPMRRERMTEEQFLEKVVQLQNICRGVNTRFNLYIQKRLLNLFEQDILRFQACLRGNKFRVLSSMYLPIRRAKIDVPHVEAIQSRIKGSRIRYKYDKLKFTLSRFSCTVELLQAYCRSKLLKTTVNTKLNDIEISHYPLTKLQSYMRASYVRKKVMSLNTKLNDERESIMKFSAIIRGNVVRCSEDAILSAVHDVHKENISKLQSLIRGIFTRSCLASIIYSLGKENCNIIQLSACIRGNAVRHKVQSLFAPENNLSETVHDLQGLVRGILVRYTLDLVDDIVEYNNLALFQAFSRGALVRESLDQKSSFYKRNVRSVIMIQSWIRKSLQRSAYLELLDCPNPSLWAVKKFVHLLNGTATIEEVQNQLESCQASLDSENMKKERLLKSIRQQLNINGVLDKFGLLKDKDHELGISDSTIPKSKYQKYEKLFYMLQVDPSYWKLLYLKEPEFVAKNVYMTFGTVNQRMNDRERSYFTRFVCEMLQNAINEAPSIESFLDNRSQFWQTILQDFLRRESPEFFSIIVPVLDYLSDPVVDFESDPYKIYQEIHGFSSPQHCSPVDDASTKNKFIDNLRCLWHAIEMVAEIYTRKVHTIPVEIRYLCTKIFCYAADKNIEEIDSLRAISSILVNVFVSEYLVNREYYGYKDSNVQKNNQKIDILMKSLATVFEIKNFDGFLDPLNQYANEIKPHIKDVLYNVLVDPEYEQEGDRLIYLDMVSPSPKLELLTEKVLEISGKFEEYLNEFPEADILHDILEKNLDNSSFPRSGRVTLELDASAYRFLVSDDKMRKIYDQVKRAFVYMMQIEDVDTNLYDLSISTILPQDEPNFANFLEQNPKIRDDPMIQKLKPLKYFTLKNVTLKKIHELESTGTFCSSDNKLQNFLNDIANTIKNPNYAIDYVTQEIYITKETLTKISEMNHSLDIELSRLKKHVDHTIKDFQKAKDFSPVHKSKFGNFKNAVKKVQGRERSELQGMKFKWNTKQLYERGVLKTIRGEKLAELTVKVFGSSGPKFPDIIFKISTSDGSRFGIQMIDKRKGPDKRYSDDVDSFSFKDLIKTQVEPKIETWKLFHSNVVVNNSQLLHLIVSFFYKRNAL
binding (TAP-Spa2 (S. cerevisiae) [1]): binds
binding (TAP-Spa2 (S. cerevisiae) [2]): no binding

B10: Hof1 (protein, UniProt Q05080 1-669)
chain: MSYSYEACFWDPNDNGVNILLGHISQGIRSCDSMILFFKQRSELEKDYARRLGAITGKLDKDIGTNMDYGKLNETFNVVLSVEKARAQSHSKQSEILFRQIYTDTKAFAANLQARYTTLSGKIERLRMDKFNKKKGCEVLQKKLQDAQIRFRDLQLNENNMIGAKRVEHNKRELLKWESNSQEYKVQLDVLKQEYKASQKFWIHEWAQLSCELQEMENARISFLQSKLQQFATSSMETYILEQTKMDMLTNHLNSFTAADEISTFSKENGTGRLKHKTSKGDMNSSANWAQMSSISTTSKKTESYMDNIRKLSSQLKETENKRKLASIDKYEKPLPSPEVTMATQFRNSTPVIRNETKVVANPTLSLRSSPVQLQSNVDDSVLRQKPDKPRPIVGEEQLKPDEDSKNPDEKGLMVHKRNQSLSSPSESSSSNPTDFSHIKKRQSMESMTTSVSSMANSIDDSQRFAKSWNSSNRKRKSMSHLQVPSSASSRSDDGGRTPNSAHNLNEDDYNTRRDTSTSTILFKPPVAVRGTSRGHTHRQSMIMQDSSNPIEDALYEMERIQSSSKPGTKTGNIMDERGVVRDRGITVTLPIVTSEGFPVIEYAKAMYPLIGNEAPGLANFHKGDYLLITEIVNKDWYKGEVYDNDRIDRNHRIGLIPYNFIQLLHQGL
binding (TAP-Spa2 (S. cerevisiae) [1]): binds
binding (TAP-Spa2 (S. cerevisiae) [2]): no binding
